Where “and” joins values, the source holds several entries; their conditions need not be identical. Equal entries are not always repeated. Structures can show the parent of a compound that is named as a salt. ± gives the standard deviation of the averaged measurements. Whole data set: some 3,100 compounds, median “mean cytoplasmic OPP incorporation (global translation) relative to DMSO” near 100, cut for the lowest 2% near 56. Some of the results follow.
tested on: U2OS; test: mean cytoplasmic OPP incorporation (global translation) relative to DMSO (% of DMSO); higher = more protein synthesis; conditions: 10 µM; 24 h
Procedure: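 Primary image-based screen in U2OS cells: compounds at 10 uM for 24 h, then a 1 h o-propargyl-puromycin (OPP) pulse, click labelling, and high-throughput microscopy. Mean cytoplasmic OPP intensity and nuclei count were normalised to DMSO wells within each plate (DMSO = 100) and averaged over triplicate plates.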

| Compound | mean cytoplasmic OPP incorporation |
| --- | --- |
| O=c1c(O)c(-c2ccc(O)c(O)c2)oc2cc(O)ccc12 [Fisetin (Fustel)] | 100 |
| COc1cc2ncnc(Oc3cccc(NC(=O)Nc4cc(C(C)(C)C(F)(F)F)on4)c3)c2cc1OC | 108 ± 2.6 |
| CNS(=O)(=O)Cc1ccc2[nH]cc(CCN(C)C)c2c1 [Sumatriptan succinate] | 100 ± 1.9 |
| NCC(=O)Nc1ccc(-n2nc(C(F)(F)F)cc2-c2ccc3c(ccc4ccccc43)c2)cc1 | 102 ± 25 |
| COc1ccc(-c2nc3cc(C4=NNC(=O)CC4C)ccc3[nH]2)cc1 (configuration not stated) [Pimobendan (Vetmedin)] | 114 |
| O=C(O)C(=O)O.[NH-]C1CCCCC1[NH-].[Pt+2] (configuration not stated) [Oxaliplatin (Eloxatin)] | 90.4 |
| CCc1cncnc1N1CCN(Cc2nc3ccc(C(F)(F)F)cc3[nH]2)CC1 | 104.3 ± 0.75 |
| CC1=C(C(=O)OC(C)C)C(c2cccc([N+](=O)[O-])c2)C(C(=O)OC2CN(C(c3ccccc3)c3ccccc3)C2)=C(N)N1 (configuration not stated) [Azelnidipine] | 106 |
| CCS(=O)(=O)N(C)[C@H]1c2cc(C#N)ccc2OC(C)(C)[C@@H]1O [(-)-[3R,4S]-Chromanol 293B] | 98.1 |
| Cc1cc(C2CCCCC2)n(O)c(=O)c1 [Ciclopirox ethanolamine] | 93.3 ± 8.5 |
| COc1cc(C(=O)NS(=O)(=O)c2ccccc2C)ccc1Cc1cn(C)c2ccc(NC(=O)OC3CCCC3)cc12 [Zafirlukast] | 112 |
| CCOc1cc([C@@H](CS(C)(=O)=O)N2C(=O)c3cccc(NC(C)=O)c3C2=O)ccc1OC | 96.7 |
| CCn1nnc2c(N3CCOCC3)nc(-c3ccc(NC(=O)Nc4ccc(C(=O)N5CCN(C)CC5)cc4)cc3)nc21 | 67.6 |
| NS(=O)(=O)c1cc(C(=O)O)c(NCc2ccco2)cc1Cl [Furosemide] | 93.9 |
| O=C(O)c1ccccc1Nc1ccccc1 [N-phenylanthranilic acid] | 100 |
| CC[C@H](C)[C@H](N)C1=N[C@H](C(=O)N[C@@H](CC(C)C)C(=O)N[C@H](CCC(=O)[O-])C(=O)N[C@H](C(=O)N[C@H]2CCCCNC(=O)[C@H](CC(N)=O)NC(=O)[C@@H](CC(=O)[O-])NC(=O)[C@H](Cc3cnc[nH]3)NC(=O)[C@@H](Cc3ccccc3)NC(=O)[C@H]([C@@H](C)CC)NC(=O)[C@@H](CCCN)NC2=O)[C@@H](C)CC)CS1.[Zn+2] [Bacitracin zinc] | 107 |
| C[C@@H]1NC(=O)NC1=O [Methylhydantoin-5-(L)] | 105 |
| CCCCCCCCCCCCCCCC(=O)NCCO [Palmitoylethanolamide] | 97.8 |
| CO[C@@H](C(=O)N1Cc2[nH]nc(NC(=O)c3ccc(N4CCN(C)CC4)cc3)c2C1)c1ccccc1 | 88.8 |

| Compound | mean cytoplasmic OPP incorporation |
| --- | --- |
| CN1CCN(C2=Nc3cc(Cl)ccc3Nc3ccccc32)CC1 [Clozapine] | 101 ± 2.4 |
| NC12CC3CC(CC(C3)C1)C2 [Adamantamine fumarate] | 104 |
| CC1(C2CCCC2)Cc2cc(OCC(=O)O)c(Cl)c(Cl)c2C1=O (configuration not stated) | 98.1 |
| CO[C@H]1O[C@@H]2O[C@@]3(C)CC[C@H]4[C@H](C)CC[C@@H]([C@H]1C)[C@@]24OO3 [Artemether (SM-224)] | 104 |
| Cc1[nH]c2ccccc2c1C(Nc1ccccn1)c1ccc(Cl)cc1 (configuration not stated) | 113 |
| Cc1cc(=O)n(-c2ccccc2)n1C [Antipyrine] | 106 |
| CC(C)[C@@H](O)CC[C@@H](C)[C@H]1CC[C@H]2[C@@H]3CC=C4C[C@@H](O)CC[C@]4(C)[C@H]3CC[C@]12C [24(S)-Hydroxycholesterol] | 104 |
| Clc1ccc(COC(Cn2ccnc2)c2ccc(Cl)cc2Cl)c(Cl)c1 (configuration not stated) [Miconazole] | 101 |
| CC1CCc2c(N3CCC(O)CC3)c(F)cc3c(=O)c(C(=O)O)cn1c23 (configuration not stated) [Nadifloxacin] | 100 |
| CCCc1c(OCCCCc2nnn[nH]2)ccc(C(C)=O)c1O | 110 |
| Cc1ccc(-c2ncc(Cl)cc2-c2ccc(S(C)(=O)=O)cc2)cn1 [Etoricoxib] | 95.8 |
| CC1(C)C(=O)NC2=C1C(=O)C(=O)c1ccccc12 | 59.6 and 42.6 |
| CC(C)/N=c1\cc2n(-c3ccc(Cl)cc3)c3ccccc3nc-2cc1Nc1ccc(Cl)cc1 [Clofazimine] | 112 |
| O=C1Cc2cc(CCN3CCN(c4nsc5ccccc45)CC3)c(Cl)cc2N1 [Ziprasidone  Hydrochloride] | 109 |
| CCN[C@H]1C[C@H](C)S(=O)(=O)c2sc(S(N)(=O)=O)cc21 [Dorzolamide hydrochloride] | 95.4 |
| CCN[C@H]1C[C@H](C)S(=O)(=O)c2sc(S(N)(=O)=O)cc21 [Dorzolamide HCl] | 90.2 |
| C[N+](C)(C)CCCCCNCC12CC3CC(CC(C3)C1)C2 | 105 |
| CCC(C)[C@H](NS(=O)(=O)c1cccc2ccccc12)C(=O)N[C@H](C=O)Cc1c[nH]c2ccccc12 (some centres not stated) | 102 |

From the supplement of paper PMC8183993
